Results on 21 molecules are retold here after PubChem BioAssay (NCATS).

The list shows a part of the results. Shown are side measurements of this screen, not its main read-out; they come without a call. The list favours compounds with an active or inconclusive main result. Potencies come from curve fits of mixed quality, noted in brackets.

Broadly, the AC50 is the concentration at which the activity in the assay is half-maximal. Read a high AC50 as activity only at high concentration.
Tags tell the direction and shape of the fitted curve.

One experiment in a line: Cell-based coincidence reporter assay to measure PMP22 gene transcription in S16 Pmp22-F2sN cells - Confirmatory screen (AID 1508646). The settings on record: S16 Schwann cells Pmp22-F2sN, dual luciferase, 24 h; measured here: FLuc reporter channel. The source says: Assay Provider: Jim Inglese Ph.D. National Center for Advancing Translational Science, National Institutes of Health, Rockville, MD CMT is a heterogeneous group of neurological disorders that affect approximately 1 in 2,500 people. In particular, the most common form of CMT, CMT1A is genetically linked to the duplication of the PMP22 gene which leads to Schwann cell overexpression, thus manifesting itself as a typical case of dose-sensitive diseases. To identify small molecule compounds that can mediate the expression of PMP22 we developed a phenotypic assay screening strategy by utilizing genome editing techniques to construct Schwann cell lines containing novel reporter technology to monitor the transcriptional or translational regulation of PMP22. For high sensitivity we use a bioluminescent reporter system embedded in the 3' UTR of the PMP22 gene (S16(c9) Pmp22-F2sN) to identify compounds that inhibit gene expression. […] We can further discriminate the effect of all transcriptionally active molecules on PMP22 translation or stability with an assay that incorporates a short NLuc peptide (HiBiT) at the C-terminus of expressed PMP22 (S16(f8) PMP22-HiBiT) allowing alpha complementation and luminescence detection of membrane-associated PMP22 protein. These assays were screened against the NCATS Sytravon Library Collection. Miniaturization of these assays to 1536-well plate format for quantitative high throughput screening (qHTS) yielded rich data sets immediately from the qHTS assay (S16(c9) Pmp22-F2sN), when compared with data from a cell viability assay (Cell TiterGlo) to identify compounds that decreased the output signals through cellular toxicity to streamline the selection process of actives for subsequent characterization using the HiBiT assay (S16(f8) PMP22-HiBiT).
Cell-based coincidence reporter assay to measure PMP22 gene transcription in S16 Pmp22-F2sN cells PROTOCOL TABLE (format as described by Inglese J, Shamu CE and Guy RK. 2007) SEQUENCE No. (e.g., 1, 2, 3, etc.); PARAMETER (e.g., Cells, Incubation, Reagent, etc.); VALUE and DESCRIPTION. 1. Cells. Add 500-1,000 cells in 4 uL in growth media (DMEM High Glucose, No Phenol Red media + 10% heat-inactivated FBS + 1% Pen/Strep supplemented media) per well into Greiner 1536-well white/solid bottom high base, TC-treated plates. 2. Compounds. Library compounds and controls added at 23nL per well, transferred by Pin Tool. 3. Incubation. Incubate plates at 37C, 5% CO2, 95% RH for 24 h. 4. Reagent. Add 3.5uL Nano-Glo Dual-Luciferase Reporter Assay System reagent 1: Lysis and FLuc reagent per well of Greiner 1536-well plates. 5. Incubation. Incubate plates at room temperature for 10 min., protect from light. 6. Detector. FLuc luminescence measured using CCD-based camera (Viewlux). 7. Reagent. Add 3.5uL Nano-Glo Dual-Luciferase Reporter Assay System reagent 2: Stop&Glo reagent per well of Greiner 1536-well plates. 8. Incubation. Incubate plates at room temperature for 10 min., protect from light. 9. Detector. NLuc luminescence measured using CCD-based camera (Viewlux). NOTES (numbers refer to Sequence numbers above; values are from representative experiments) 6. Luminescence Read #1 (FLuc): Clear filter; Exposure = 10 sec, Gain = High, Speed = Slow, Binning = 2X 9. Luminescence Read #2 (NLuc): Clear filter; Exposure = 1 sec, Gain = High, Speed = Slow, Binning = 2X REFERENCES: 1. Inglese J, Shamu CE and Guy RK, Reporting data from high throughput screening of small molecule libraries, Nature Chemical Biology, 2007, 3(8): 438-441. doi.org/10.1038/nchembio0807-438 2. Yasgar A, Shinn P, Jadhav A, Auld DS, Michael S, Zheng W, Austin CP, Inglese J and Simeonov A, Compound Management for Quantitative High-Throughput Screening. J. Assoc. Lab. Auto., 2008, 13: 79-89. doi: 10.1016/j.jala.2007.12.004
A general note: Reporter assays use an easily measured gene product as a stand-in for the process of interest.
As to `CCCCn1c(=N)n(CCOc2ccccc2OC)c2ccccc21`, the concentration at half-maximal activity (AC50) is 24.3 µM [falling, partial curve].
Consider `O=c1oc2ccccc2cc1-c1cn2cc(Cc3ccc(Br)cc3)sc2n1`, for which the AC50 was 21.7 µM [falling, partial curve, poor fit].
On the same count and under the same terms, the value for `Cc1ccc(Cl)cc1NC(=O)c1oc2ccc(S(=O)(=O)N3CCC4(CC3)OCCO4)cc2c1C` was 21.7 µM [falling, partial curve, poor fit].
Consider `COc1ccccc1CNC(=O)Cn1c(=O)oc2cc(S(=O)(=O)N3CCC(C)CC3)ccc21`, for which the AC50 is 13.7 µM [falling, full curve, poor fit].
On to `CCOC(=O)c1cccc(NC(=O)c2cc3cc4ccc(C)cc4nc3s2)c1`, for which the AC50 is 19.3 µM [falling, partial curve].
On to `Cc1ccccc1CNC(=O)CSc1nnc(C)c2c(C)n(-c3ccccc3)nc12`, for which the concentration at half-maximal activity (AC50) is 17.2 µM [falling, partial curve].
With `O=C(CSc1nc2cc(C(=O)NC3CCCC3)ccc2c(=O)n1CC1CCCO1)c1cccc(Cl)c1` (centres undefined), the AC50 is 24.3 µM [falling, partial curve].
On the same count and under the same terms, the same measure for `CCOc1ccc(C(=O)c2cnc3ccc(Cl)cc3c2S(=O)(=O)c2ccc(C)cc2)cc1`: 19.3 µM [falling, partial curve]; for `Cc1ccc(CNC(=O)CSc2c3c(nc4ccc(Cl)cc24)CCCC3)cc1`: 3.06 µM [falling, full curve, poor fit]; for `COC(=O)c1c(-c2ccc(Cl)cc2)noc1N1CCN(c2ccc(F)cc2)CC1`: 12.2 µM [falling, partial curve].
The same measure, in the same setting: the same measure for `Cc1ccc(OCC(=O)Nc2ccc3[nH]c(=O)sc3c2)cc1`: 13.7 µM [falling, full curve, poor fit]; for `CCOC(=O)c1cc2c(=O)n3ccccc3nc2n(C(C)C)c1=NC(=O)c1c(-c2c(F)cccc2Cl)noc1C`: 8.62 µM [falling, partial curve, poor fit].
As for `COCCCNC(=O)c1ccc2c(c1)N=C(C)c1c(C)ccc(C)c1S2`, the half-maximal activity concentration (AC50) was 0.306 µM [falling, full curve].
Consider `Cc1c2cnn(CC(=O)NCc3ccccc3)c(=O)c2c(C)n1Cc1cccc(Cl)c1`, for which the AC50 is 17.2 µM [falling, partial curve].
As for `CCc1nnc(NC(=O)c2nc(S(C)(=O)=O)ncc2Cl)s1`, the concentration at half-maximal activity (AC50) was 15.3 µM [falling, partial curve].
Still for that read-out and setting: the same measure for `CCOc1ccccc1NC(=O)C(=O)NCCc1sc(-c2cccc(F)c2)nc1C`: 17.2 µM [falling, partial curve, poor fit]; for `CC(=O)c1ccc(NC(=O)CSC2=Nc3ccccc3N=C(c3ccc(F)cc3)C2)cc1`: 17.2 µM [falling, partial curve, poor fit]; for `N=c1n(CCN2CCCCC2)c2ccccc2n1CC(O)COc1ccc(Cl)cc1Cl` (centres undefined): 19.3 µM [falling, partial curve].
For `COc1ccc(NC(=O)CSc2c3c(nc4ccc(Cl)cc24)CCCC3)cc1Cl`, the AC50 is 21.7 µM [falling, partial curve].
For `O=C(Cn1cc(C(=O)C2CCCCC2)c2ccccc21)Nc1ccccc1Cl`, the half-maximal activity concentration (AC50) was 24.3 µM [falling, partial curve, poor fit].

The experiment is the same for the next values; noted with them: S16 Schwann cells Pmp22-F2sN, dual luciferase, 24 h; measured here: NLuc reporter channel.
Turning to `CCCCn1c(=N)n(CCOc2ccccc2OC)c2ccccc21`, the concentration at half-maximal activity (AC50) was 30.6 µM [falling, partial curve].
In the case of `O=c1oc2ccccc2cc1-c1cn2cc(Cc3ccc(Br)cc3)sc2n1`, the AC50 was 21.7 µM [falling, partial curve, poor fit].
Turning to `Cc1ccc(Cl)cc1NC(=O)c1oc2ccc(S(=O)(=O)N3CCC4(CC3)OCCO4)cc2c1C`, the AC50 was 21.7 µM [falling, partial curve, poor fit].
Same read-out and setting: the same measure for `CCOC(=O)c1cccc(NC(=O)c2cc3cc4ccc(C)cc4nc3s2)c1`: 19.3 µM [falling, partial curve].
On to `Cc1ccccc1CNC(=O)CSc1nnc(C)c2c(C)n(-c3ccccc3)nc12`, for which the AC50 is 15.3 µM [falling, partial curve].
Regarding `O=C(CSc1nc2cc(C(=O)NC3CCCC3)ccc2c(=O)n1CC1CCCO1)c1cccc(Cl)c1` (centres undefined), the half-maximal activity concentration (AC50) was 24.3 µM [falling, partial curve].
The same measure, in the same setting: the value for `CCOc1ccc(C(=O)c2cnc3ccc(Cl)cc3c2S(=O)(=O)c2ccc(C)cc2)cc1` was 19.3 µM [falling, partial curve]; that for `CCC1=Nc2cc(C(=O)NCc3ccccc3Cl)ccc2Sc2ccc(C)cc21` was 13.7 µM [falling, full curve]; that for `COC(=O)c1c(-c2ccc(Cl)cc2)noc1N1CCN(c2ccc(F)cc2)CC1` was 13.7 µM [falling, partial curve].
As to `Cc1ccc(OCC(=O)Nc2ccc3[nH]c(=O)sc3c2)cc1`, the AC50 is 15.3 µM [falling, partial curve, poor fit].
On the same count and under the same terms, the value for `CCOC(=O)c1cc2c(=O)n3ccccc3nc2n(C(C)C)c1=NC(=O)c1c(-c2c(F)cccc2Cl)noc1C` was 19.3 µM [falling, partial curve]; that for `COCCCNC(=O)c1ccc2c(c1)N=C(C)c1c(C)ccc(C)c1S2` was 0.306 µM [falling, full curve]; that for `Cc1c2cnn(CC(=O)NCc3ccccc3)c(=O)c2c(C)n1Cc1cccc(Cl)c1` was 24.3 µM [falling, partial curve, poor fit].
Take `CCc1nnc(NC(=O)c2nc(S(C)(=O)=O)ncc2Cl)s1`: the concentration at half-maximal activity (AC50) is 12.2 µM [falling, full curve].
As for `CCOc1ccccc1NC(=O)C(=O)NCCc1sc(-c2cccc(F)c2)nc1C`, the AC50 was 17.2 µM [falling, partial curve, poor fit].
For the molecule `CC(=O)c1ccc(NC(=O)CSC2=Nc3ccccc3N=C(c3ccc(F)cc3)C2)cc1`, the concentration at half-maximal activity (AC50) is 13.7 µM [falling, partial curve].
On the same count and under the same terms, the same measure for `N=c1n(CCN2CCCCC2)c2ccccc2n1CC(O)COc1ccc(Cl)cc1Cl` (centres undefined): 21.7 µM [falling, partial curve]; for `COc1ccc(NC(=O)CSc2c3c(nc4ccc(Cl)cc24)CCCC3)cc1Cl`: 24.3 µM [falling, partial curve]; for `O=C(Cn1cc(C(=O)C2CCCCC2)c2ccccc21)Nc1ccccc1Cl`: 19.3 µM [falling, partial curve, poor fit].
